The whole screen tested about 150,000 compounds, of which about 540 (0.36%) showed an effect of 50% or more. Some of the results follow.
system: Plasmodium falciparum; assay: Primary screen in NF54 nanoGlo assay, in single point, at 2uM, 72h; a lower Z score goes with more inhibition; format: functional, Erythrocyte; conditions: timepoint 72 hour

Question: For `CC(C)C[C@H](O)C(=O)N1CCN(CCc2ccccc2)C(=O)C1`, which “% Inhibition” value is on record?
Answer: -4%

Question: What about the Z score of the same molecule?
Answer: 0.45

Question: Which results are given for `O=C(Cc1cccc2ccccc12)N1CC[C@H](N2C(=O)COC2=O)C1`?
Answer: % Inhibition: -5%; Z score: 0.57

Question: For `C[C@@H](C(=O)Nc1ccc(S(=O)(=O)Nc2ccc(Cl)cc2Cl)cc1)N(c1ccccc1)S(C)(=O)=O`, which “% Inhibition” value is on record?
Answer: -10%

Question: And the Z score?
Answer: 1.12

Question: With `COCCNC(=O)C1CC(c2ccccc2)CN(C(=O)COc2ccccc2)C1` (stereo unspecified) as the molecule, how does the “% Inhibition” value read?
Answer: -1%

Question: What about the Z score of the same molecule?
Answer: 0.17

Question: How did the “% Inhibition” value turn out when `O=C(COc1ccc(Cl)cc1)NCC1CCOCC1` was run?
Answer: -3%

Question: What about the Z score of the same molecule?
Answer: 0.57

Question: Which results are given for `CC(C)c1ncc(Br)c(C(=O)NCC[C@H]2CCOC2)n1`?
Answer: % Inhibition: -13%; Z score: 2.05

Question: What does the source list for `CC(C)[C@@H]1CN(C)CCN1C(=O)c1cc2cccnc2[nH]1`?
Answer: % Inhibition: 3%; Z score: -0.35

Question: What does the source list for `CN(CC(=O)N1CC[C@@]2(CCCN(CC3CCC3)C2=O)C1)c1ccccc1`?
Answer: % Inhibition: 1%; Z score: -0.18

Question: For `COc1ccsc1S(=O)(=O)NC[C@@H](CO)Cc1cccnc1`, which “% Inhibition” value is on record?
Answer: 9%

Question: What about the Z score of the same molecule?
Answer: -1.6

Question: Which “% Inhibition” value does the source give for `O=C(NCC1CN2CCCN1CC2)c1ccc(OC2CC2(F)F)cc1` (stereo unspecified) here?
Answer: -4%

Question: And the Z score?
Answer: 0.75

Question: `CN(Cc1cnc(N(C)C)nc1)C[C@H]1CCCCO1` was tested. Which “% Inhibition” value did it give?
Answer: -13%

Question: What about the Z score of the same molecule?
Answer: 1.82

Question: For `CN(C)S(=O)(=O)N1C[C@@H](Oc2ccccc2)C[C@H]1C(=O)N1CCOCC1`, which “% Inhibition” value is on record?
Answer: 6%

Question: And the Z score?
Answer: -0.73

Question: With `COc1ccc2ncn(CC3(CO)CCCC3)c(=O)c2c1` as the molecule, how does the “% Inhibition” value read?
Answer: -4%

Question: And the Z score?
Answer: 0.53

Question: With `O=C(NCCc1cc(F)cc(F)c1)Nc1cnns1` as the molecule, how does the “% Inhibition” value read?
Answer: 2%

Question: And the Z score?
Answer: -0.18

Question: Which results are given for `Cc1ncccc1C(=O)N1CCC(CCn2c(C)cnc2-c2ccncc2)CC1`?
Answer: % Inhibition: 2%; Z score: -0.2

Question: What does the source list for `Cn1c(=O)cnn(-c2cc(NS(=O)(=O)Cc3ccccc3)c(Cl)cc2F)c1=O`?
Answer: % Inhibition: -6%; Z score: 0.96

Question: How did the “% Inhibition” value turn out when `Cc1ccccc1N1C(=O)c2ccccc2[C@]1(O)c1ccc(F)cc1` was run?
Answer: -15%

Question: And the Z score?
Answer: 1.51

Question: What does the source list for `COc1ccc(NC(=O)c2c(F)c(F)c3c(c2F)N(CCc2ccc(OC)c(OC)c2)CCS3(=O)=O)cc1`?
Answer: % Inhibition: -5%; Z score: 0.66

Question: How did the “% Inhibition” value turn out when `O=S1(=O)CC[C@H](c2nc(-c3ccncc3)nn2C2CCCCC2)C1` was run?
Answer: -1%

Question: What about the Z score of the same molecule?
Answer: 0.23

Question: How did the “% Inhibition” value turn out when `Cc1c(C)[n+]([O-])c([C@@H](c2ccc3c(c2)n(C)c(=O)n3C)C2C(=O)OC(C)(C)OC2=O)n1C` was run?
Answer: -5%

Question: What about the Z score of the same molecule?
Answer: 0.66

Question: Which results are given for `O=C(c1cn(CC[C@H]2CCCCN2)nn1)N1CC=C(c2ccccc2)CC1`?
Answer: % Inhibition: -2%; Z score: 0.19

Question: What does the source list for `N[C@@H]1CCCC[C@@H]1n1cc(C(=O)N2CCCC2CC2CCCC2)nn1` (stereo partly specified)?
Answer: % Inhibition: -12%; Z score: 1.94

Question: Which results are given for `CC(C)Oc1cccc(CC(=O)NCc2cccnc2-n2ccnc2)c1`?
Answer: % Inhibition: -6%; Z score: 1.06

Question: How did the “% Inhibition” value turn out when `O=C1CC[C@H](C(=O)NCc2ccc3c(c2)OCO3)CN1` was run?
Answer: -11%

Question: What about the Z score of the same molecule?
Answer: 2.24

Question: What does the source list for `COc1cc(CN2CC[C@H](N3CCN(C)CC3)C2)ccc1OCC=C(C)C`?
Answer: % Inhibition: -8%; Z score: 1.13

Question: For `CC(C)(C)c1nccn1Cc1nc2ccccc2s1`, which “% Inhibition” value is on record?
Answer: -3%

Question: What about the Z score of the same molecule?
Answer: 0.45

Question: `C[C@H](Nc1ccc2c(c1)CCC2)C(=O)N1CCNC1=O` was tested. Which “% Inhibition” value did it give?
Answer: -6%

Question: What about the Z score of the same molecule?
Answer: 0.78

Question: How did the “% Inhibition” value turn out when `COc1cc(C)c(-c2nc(CN3CCO[C@@H](CCN)C3)c(C)o2)cc1C` was run?
Answer: -3%

Question: And the Z score?
Answer: 0.32

Question: With `COc1ccc(N2C[C@@H](C(=O)N3CCN(S(=O)(=O)c4ccc(F)c(F)c4)CC3)CC2=O)c(OC)c1` as the molecule, how does the “% Inhibition” value read?
Answer: -4%

Question: And the Z score?
Answer: 0.67

Question: For `CN1C[C@@H](O)CNS(=O)(=O)c2ccc(-c3cnn(C)c3)cc2O[C@H]2CN(Cc3cccn3C)C[C@H]21`, which “% Inhibition” value is on record?
Answer: 16%

Question: And the Z score?
Answer: -2.57

Question: Which “% Inhibition” value does the source give for `CCc1ccc(C(COC)NS(=O)(=O)CC2(C)CC2(F)F)o1` (stereo unspecified) here?
Answer: -1%

Question: And the Z score?
Answer: 0.11

Question: Which “% Inhibition” value does the source give for `CCCCNC(=O)Nc1c(C)c(C)nn1CCO` here?
Answer: -11%

Question: And the Z score?
Answer: 1.26

Question: `Cc1cc(CCCOc2c(C)cc(C#N)cc2C)on1` was tested. Which “% Inhibition” value did it give?
Answer: 18%

Question: What about the Z score of the same molecule?
Answer: -2.34

Question: Which “% Inhibition” value does the source give for `N#Cc1ccnc(-c2cccc(C(=O)NCCCN3CCCC3=O)c2)c1` here?
Answer: -13%

Question: What about the Z score of the same molecule?
Answer: 2.11

Question: Which results are given for `O=C(NC1(c2cccs2)CCOCC1)c1ccc2ncsc2c1`?
Answer: % Inhibition: 18%; Z score: -2.47

Question: What does the source list for `CC1CCN(C(=O)CN2CCN(Cc3ccccc3F)CC2)CC1`?
Answer: % Inhibition: -11%; Z score: 1

Question: What does the source list for `CCn1ccc(NC(=O)c2cc(-c3ccc4c(c3)OCO4)nc3onc(C)c23)n1`?
Answer: % Inhibition: 32%; Z score: -3.62

Question: `O=C(NOC1CCCCO1)C1CC1c1ccc(C(F)(F)F)cc1` (stereo unspecified) was tested. Which “% Inhibition” value did it give?
Answer: -6%

Question: What about the Z score of the same molecule?
Answer: 0.82

Question: Which results are given for `O=C1CN(C(=O)c2ccc3c(n2)CCCC3)CN1CC1CC1`?
Answer: % Inhibition: -11%; Z score: 1.41

Question: With `Cc1nc(N)sc1C(=O)N[C@@H]1C[C@@H](CO)N(C)C1` as the molecule, how does the “% Inhibition” value read?
Answer: -15%

Question: And the Z score?
Answer: 1.95

Question: How did the “% Inhibition” value turn out when `COc1ccc2cc(C(=O)N3CC[C@@]4(CN(C)C(=O)CO4)C3)n(C)c2c1` was run?
Answer: -8%

Question: And the Z score?
Answer: 0.93

Question: `CCc1ccc(CC(=O)N2CC3(CCC3)[C@@H]2C2CC2)nc1` was tested. Which “% Inhibition” value did it give?
Answer: -12%

Question: What about the Z score of the same molecule?
Answer: 1.54

Question: `Cn1cccc1CNC1c2ccccc2CC1O` (stereo unspecified) was tested. Which “% Inhibition” value did it give?
Answer: 1%

Question: What about the Z score of the same molecule?
Answer: -0.18

Question: What does the source list for `C[C@H]1CCCN(S(=O)(=O)NCCCn2cccn2)C1`?
Answer: % Inhibition: -3%; Z score: 0.5

Question: What does the source list for `O=C(NCCc1csc(-n2cccn2)n1)c1cnccn1`?
Answer: % Inhibition: 0%; Z score: 0

Question: For `Cc1nnccc1NC(=O)NCc1ccc2c(c1)C[C@H](C)O2`, which “% Inhibition” value is on record?
Answer: -4%

Question: What about the Z score of the same molecule?
Answer: 0.72

Question: How did the “% Inhibition” value turn out when `COc1ccccc1N1CCN(c2nc3ccc(C)cc3cc2-c2noc(C)n2)CC1` was run?
Answer: -4%

Question: What about the Z score of the same molecule?
Answer: 0.79

Question: What does the source list for `CCOC(=O)c1cnn2ccc(NC(=O)[C@@H]3CCCCO3)cc12`?
Answer: % Inhibition: -16%; Z score: 2.17

Question: Which “% Inhibition” value does the source give for `COc1cccc(CC(=O)OC2CCN(c3nncc4ccccc34)CC2)c1` here?
Answer: 4%

Question: And the Z score?
Answer: -0.58

Question: What does the source list for `CCOC(=O)[C@H]1CCCN(C(=O)c2coc(CN(CCc3c[nH]c4ccccc34)Cc3ccc(C)cc3C)n2)C1`?
Answer: % Inhibition: -11%; Z score: 1.23

Question: For `Cn1ccnc1CN(CCO)C(=O)CCc1ccncc1`, which “% Inhibition” value is on record?
Answer: -18%

Question: And the Z score?
Answer: 2.13

Question: For `Fc1ccc(-c2noc(CN3CCOC4CCCCC43)n2)cc1` (stereo unspecified), which “% Inhibition” value is on record?
Answer: -9%

Question: What about the Z score of the same molecule?
Answer: 1.45

Question: What does the source list for `CC(C)(C)OC(=O)N1C2CCCC1CN(Cc1ccc(CO)o1)C2`?
Answer: % Inhibition: 6%; Z score: -0.92

Reference: ChEMBL document CHEMBL4888484, “Replenishing the malaria drug discovery pipeline: Screening and hit evaluation of the MMV Hit Generation Library 1 (HGL1) against asexual blood stage Plasmodium falciparum ,using a nano luciferase reporter read-out” (2022)
